Assay results from the supplement of paper PMC8728848.
The other results are listed elsewhere or left out.

How the values were obtained:
Assay in all cases: glycan array binding signal (z-score within array); higher = stronger binding
Conditions in all cases: glycan notation: IUPAC condensed, linker removed
Fuc(a1-2)Gal = molecular target: Fuc(a1-2)Gal
Procedure, shortened: (§1)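 The Consortium for Functional Glycomics database supplied 3228 glycan arrays, of which those lacking an available protein sequence were dropped. The binding signal, a within-array Z-score, was averaged across arrays of the same protein sequence and across linkers. Negative scores can be read as non-binding.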

Fuc(a1-2)Gal(b1-3)GalNAc = molecular target: Fuc(a1-2)Gal(b1-3)GalNAc
Procedure, shortened: as §1

[1] = molecular target: Fuc(a1-2)Gal(b1-3)GalNAc(a1-3)[Fuc(a1-2)]Gal(b1-4)Glc
Procedure, shortened: as §1

[2] = molecular target: Fuc(a1-2)Gal(b1-3)GalNAc(a1-3)[Fuc(a1-2)]Gal(b1-4)GlcNAc
Procedure, shortened: as §1

[3] = molecular target: Fuc(a1-2)Gal(b1-3)GalNAc(b1-3)Gal
Procedure, shortened: as §1

[4] = molecular target: Fuc(a1-2)Gal(b1-3)GalNAc(b1-3)Gal(a1-4)Gal(b1-4)Glc
Procedure, shortened: as §1

[5] = molecular target: Fuc(a1-2)Gal(b1-3)GalNAc(b1-3)Gal(b1-4)Glc
Procedure, shortened: as §1

[6] = molecular target: Fuc(a1-2)Gal(b1-3)GalNAc(b1-4)[Neu5Ac(a2-3)]Gal(b1-4)Glc
Procedure, shortened: as §1

Fuc(a1-2)Gal(b1-3)GlcNAc = molecular target: Fuc(a1-2)Gal(b1-3)GlcNAc
Procedure, shortened: as §1

[7] = molecular target: Fuc(a1-2)Gal(b1-3)GlcNAc(b1-2)Man(a1-3)[Fuc(a1-2)Gal(b1-3)GlcNAc(b1-2)Man(a1-6)]Man(b1-4)GlcNAc(b1-4)GlcNAc
Procedure, shortened: as §1

[8] = molecular target: Fuc(a1-2)Gal(b1-3)GlcNAc(b1-2)Man(a1-3)[Fuc(a1-2)Gal(b1-3)GlcNAc(b1-2)Man(a1-6)]Man(b1-4)GlcNAc(b1-4)[Fuc(a1-6)]GlcNAc
Procedure, shortened: as §1

[9] = molecular target: Fuc(a1-2)Gal(b1-3)GlcNAc(b1-3)Gal(b1-4)Glc
Procedure, shortened: as §1

[10] = molecular target: Fuc(a1-2)Gal(b1-3)GlcNAc(b1-3)GalNAc
Procedure, shortened: as §1

[11] = molecular target: Fuc(a1-2)Gal(b1-3)GlcNAc(b1-3)[Fuc(a1-2)Gal(b1-3)GlcNAc(b1-6)]GalNAc
Procedure, shortened: as §1

[12] = molecular target: Fuc(a1-2)Gal(b1-3)GlcNAc(b1-3)[Gal(b1-4)GlcNAc(b1-6)]Gal(b1-4)Glc
Procedure, shortened: as §1

[13] = molecular target: Fuc(a1-2)Gal(b1-3)GlcNAc(b1-3)[Neu5Ac(a2-6)Gal(b1-4)GlcNAc(b1-6)]Gal(b1-4)Glc
Procedure, shortened: as §1

[14] = molecular target: Fuc(a1-2)Gal(b1-3)GlcNAc6S
Procedure, shortened: as §1

[15] = molecular target: Fuc(a1-2)Gal(b1-3)[Fuc(a1-4)]GlcNAc
Procedure, shortened: as §1

[16] = molecular target: Fuc(a1-2)Gal(b1-3)[Fuc(a1-4)]GlcNAc(b1-2)Man(a1-3)[Fuc(a1-2)Gal(b1-3)[Fuc(a1-4)]GlcNAc(b1-2)Man(a1-3)]Man(b1-4)GlcNAc(b1-4)GlcNAc
Procedure, shortened: as §1

[17] = molecular target: Fuc(a1-2)Gal(b1-3)[Fuc(a1-4)]GlcNAc(b1-2)Man(a1-3)[Fuc(a1-2)Gal(b1-3)[Fuc(a1-4)]GlcNAc(b1-2)Man(a1-6)]Man(b1-4)GlcNAc(b1-4)[Fuc(a1-6)]GlcNAc(b1-4)[Fuc(a1-6)]GlcNAc
Procedure, shortened: as §1

[18] = molecular target: Fuc(a1-2)Gal(b1-3)[Fuc(a1-4)]GlcNAc(b1-3)[Fuc(a1-3)[Gal(b1-4)]GlcNAc(b1-6)]Gal(b1-4)Glc
Procedure, shortened: as §1

[19] = molecular target: Fuc(a1-2)Gal(b1-3)[Fuc(a1-4)]GlcNAc(b1-3)[Gal(b1-4)GlcNAc(b1-6)]Gal(b1-4)Glc
Procedure, shortened: as §1

[20] = molecular target: Fuc(a1-2)Gal(b1-4)Fuc(a1-3)]GlcNAc(b1-2)Man(a1-3)[Fuc(a1-2)Gal(b1-4)[Fuc(a1-3)]GlcNAc(b1-2)Man(a1-6)]Man(b1-4)GlcNAc(b1-4)GlcNAc
Procedure, shortened: as §1

Fuc(a1-2)Gal(b1-4)Glc = molecular target: Fuc(a1-2)Gal(b1-4)Glc
Procedure, shortened: as §1

Fuc(a1-2)Gal(b1-4)Glc6S = molecular target: Fuc(a1-2)Gal(b1-4)Glc6S
Procedure, shortened: as §1

Fuc(a1-2)Gal(b1-4)GlcNAc = molecular target: Fuc(a1-2)Gal(b1-4)GlcNAc
Procedure, shortened: as §1

[21] = molecular target: Fuc(a1-2)Gal(b1-4)GlcNAc(b1-2)Man
Procedure, shortened: as §1

[22] = molecular target: Fuc(a1-2)Gal(b1-4)GlcNAc(b1-2)Man(a1-3)[Fuc(a1-2)Gal(b1-4)GlcNAc(b1-2)Man(a1-6)]Man(b1-4)GlcNAc(b1-4)GlcNAc
Procedure, shortened: as §1

[23] = molecular target: Fuc(a1-2)Gal(b1-4)GlcNAc(b1-2)Man(a1-3)[Fuc(a1-2)Gal(b1-4)GlcNAc(b1-2)Man(a1-6)]Man(b1-4)GlcNAc(b1-4)[Fuc(a1-6)]GlcNAc
Procedure, shortened: as §1

[24] = molecular target: Fuc(a1-2)Gal(b1-4)GlcNAc(b1-2)[Fuc(a1-2)Gal(b1-4)GlcNAc(b1-4)]Man(a1-3)[Fuc(a1-2)Gal(b1-4)GlcNAc(b1-2)Man(a1-6)]Man(b1-4)GlcNAc(b1-4)GlcNAc
Procedure, shortened: as §1

B1: LTL (Lotus tetragonolobus), P19664 (protein)
chain: VSFNYTEFKDDGSLILQGDAKIWTDGRLAMPTDPLVNNPKTTRSAGRALYATPVPIWDSATGNVASFVTSFNFLFVIRELKYTPTDGLVFFLAPVGTEIPSGSTGGFLGIFDGSNGFNQFVAVEFDSYHNIWDPKSLRSSHVGIDVNSIMSLKAVNWNRVSGSLEKATIIYDSQTNILSVVMTSQNGQITTIYGTIDLKTVLPEKVSVGFSATTGNPEREKHDIYSWSFTSTLKEPEEQA
Fuc(a1-2)Gal
  glycan array binding signal (z-score): 0.351
Fuc(a1-2)Gal(b1-3)GalNAc
  glycan array binding signal (z-score): -0.337
[1]
  glycan array binding signal (z-score): -0.173
[2]
  glycan array binding signal (z-score): -0.117
[3]
  glycan array binding signal (z-score): 0.149
[4]
  glycan array binding signal (z-score): -0.128
[5]
  glycan array binding signal (z-score): 0.013
[6]
  glycan array binding signal (z-score): -0.236
Fuc(a1-2)Gal(b1-3)GlcNAc
  glycan array binding signal (z-score): -0.223
[7]
  glycan array binding signal (z-score): 0.27
[8]
  glycan array binding signal (z-score): -0.226
[9]
  glycan array binding signal (z-score): -0.241
[10]
  glycan array binding signal (z-score): -0.132
[11]
  glycan array binding signal (z-score): 0.035
[12]
  glycan array binding signal (z-score): -0.196
[13]
  glycan array binding signal (z-score): -0.272
[14]
  glycan array binding signal (z-score): -0.15
[15]
  glycan array binding signal (z-score): -0.277
[16]
  glycan array binding signal (z-score): 0.157
[17]
  glycan array binding signal (z-score): -0.192
[18]
  glycan array binding signal (z-score): -0.312
[19]
  glycan array binding signal (z-score): -0.265
[20]
  glycan array binding signal (z-score): 0.157
Fuc(a1-2)Gal(b1-4)Glc
  glycan array binding signal (z-score): 0.344
Fuc(a1-2)Gal(b1-4)Glc6S
  glycan array binding signal (z-score): -0.014
Fuc(a1-2)Gal(b1-4)GlcNAc
  glycan array binding signal (z-score): 0.463
[21]
  glycan array binding signal (z-score): -0.289
[22]
  glycan array binding signal (z-score): -0.034
[23]
  glycan array binding signal (z-score): -0.255
[24]
  glycan array binding signal (z-score): 0.114
